This passage reports binding signal results from PMC7819943, “Rice protein-binding microarrays: a tool to detect cis-acting elements near promoter regions in rice”.

The other results are listed elsewhere or left out.

This test deals with T1, OsWOX13 (Oryza sativa, UniProt Q5QMM3 1-267).
T1 sequence: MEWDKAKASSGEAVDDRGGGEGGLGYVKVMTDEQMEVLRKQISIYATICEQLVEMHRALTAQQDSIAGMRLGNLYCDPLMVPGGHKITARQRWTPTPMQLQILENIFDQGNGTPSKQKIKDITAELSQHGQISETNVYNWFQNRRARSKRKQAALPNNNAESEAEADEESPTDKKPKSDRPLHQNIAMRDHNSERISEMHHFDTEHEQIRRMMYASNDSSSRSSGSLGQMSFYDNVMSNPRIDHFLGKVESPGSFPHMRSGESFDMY
Put plainly: protein-binding microarray (RPBM); PBS, 2% BSA, 51.3 ng/ul salmon testes DNA, 50 uM zinc acetate, 200 nM TF, 25 C, 1 h; high values mean tight binding. The note with it: protein: recombinant; tags: N-terminal polyhistidine and DsRed monomer fusion (pET32a); label: CyDye5-dUTP incorporated in the synthesized complementary strand; 3' TTTTT single-stranded linker to array surface; dsDNA, one strand shown. An outline of the steps: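 Using Ni–NTA, transcription factors fused N-terminally to polyhistidine and DsRed were purified after expression in E. coli BL21-CodonPlus. These were incubated at 200 nM with a blocked, double-stranded custom Agilent array for 1 h at 25 °C in a buffer containing 50 µM zinc acetate, and the array was washed. The binding signal is per-feature fluorescence intensity (arbitrary units) on an Axon 4000B scanner.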
On to “CCCAATTAAACTACGGATTATAATTGCAGCTCAACCAATCCGGAGTCACCTAGTGCAG”, for which the binding signal was 21400 fluorescence intensity (a.u.).
Next, “CTATGATATACGTAAGGGTAAATTGGACAATTCATCATAACGGAGTCACCTAGTGCAG”: 4470 fluorescence intensity (a.u.); “GAGAACTAATTAATCTTATAGGCAAAGGGTTAACAGAAGCCGGAGTCACCTAGTGCAG”: 12400 fluorescence intensity (a.u.).
To “TTAATTAATTATCTCCGATACATCCTGCGGCGATTTTCGTCGGAGTCACCTAGTGCAG” belongs 50500 fluorescence intensity (a.u.).
Next, “GATAGATAGATTTAATTTTGATAATGCATAGAGATATTGCCGGAGTCACCTAGTGCAG”: 19200 fluorescence intensity (a.u.); “GATGATGATGATGATATGGATATTCATTGGCATAGTTGTGCGGAGTCACCTAGTGCAG”: 15100 fluorescence intensity (a.u.); “GCTTTAAAATGTTAAATTTATCCATTTATCATGTTTATAACGGAGTCACCTAGTGCAG”: 8220 fluorescence intensity (a.u.).
Regarding “AGTAATTGACTCGACCGCGAGCGACGTCGATCGATCTGTCCGGAGTCACCTAGTGCAG”, the binding signal was 34700 fluorescence intensity (a.u.).
Next, “AATGAATTCAAGAAAATTAAATTTCACAACATTACACTTCCGGAGTCACCTAGTGCAG”: 3760 fluorescence intensity (a.u.); “AATAACAAATTTGACTTGATAAATGAGATGGAGAGTTGGCCGGAGTCACCTAGTGCAG”: 29100 fluorescence intensity (a.u.); “AAGGGAAAATTGACCACATTCATCTGACAGTGGACTGCTTCGGAGTCACCTAGTGCAG”: 7940 fluorescence intensity (a.u.).
To “AAAGTTACATATTGATTACCTATTGTAAATTGCCATGATCCGGAGTCACCTAGTGCAG” belongs 14700 fluorescence intensity (a.u.).
To “AGGTCATTAATGAAAACGGATGGCTGAGATTTATTTAGGTCGGAGTCACCTAGTGCAG” belongs 3800 fluorescence intensity (a.u.); to “GAACCCTAACTGCGCCATCACATCGATCTACCTCCCCTTACGGAGTCACCTAGTGCAG”, 5060 fluorescence intensity (a.u.); to “TTCTTCAAATTGACTTAGAGTTTTCCAGATCCCTGAGAAGCGGAGTCACCTAGTGCAG”, 4830 fluorescence intensity (a.u.).
For “TTATAATTAGTATTTTCATTGTTGTTAGATGATAAAACATCGGAGTCACCTAGTGCAG”, the binding signal was 17500 fluorescence intensity (a.u.).
For “ACAGTGTAATTACACTACGATTATACTATAATTACATCTGCGGAGTCACCTAGTGCAG”, the binding signal is 20200 fluorescence intensity (a.u.).
To “ACCTGAATGATTTCTACCATGGAAAAGCCATTAAAGAGGTCGGAGTCACCTAGTGCAG” belongs 20100 fluorescence intensity (a.u.); to “TACCTAATATAAGTAAATTGGTTCTCGACCCGGAATAAATCGGAGTCACCTAGTGCAG”, 3180 fluorescence intensity (a.u.); to “CTATTTAGACACAACATGTTAACATGCTAATTTTGTTGGTCGGAGTCACCTAGTGCAG”, 8370 fluorescence intensity (a.u.).
Next, “CGACGAATGGAAAATTTCTAATTATTTTCTAAAGTAGGCTCGGAGTCACCTAGTGCAG”: 3770 fluorescence intensity (a.u.); “ATAGGGACAATTTCACTGATTGCGAGGTCTGCCCAAGTCCCGGAGTCACCTAGTGCAG”: 11700 fluorescence intensity (a.u.); “CCAAAATTGCAATTAGCCCCTTGCCGCCCTCTGTATGGGCCGGAGTCACCTAGTGCAG”: 28400 fluorescence intensity (a.u.).
Next, “ACACATGATTGCATTGACCATTACAAACCAAACAATTCGACGGAGTCACCTAGTGCAG”: 35000 fluorescence intensity (a.u.); “GAGAGAGAGATCAGCACATGATTGATTAAATATTAGCTTACGGAGTCACCTAGTGCAG”: 19100 fluorescence intensity (a.u.); “TACCTTAATTTATTGATTGCACTCTTGTTCTCACACGGTTCGGAGTCACCTAGTGCAG”: 53200 fluorescence intensity (a.u.).
For the sequence “TTTTACATTGATAATTTGAAACCATTTCACGTTTATGTGTCGGAGTCACCTAGTGCAG”, the binding signal is 11100 fluorescence intensity (a.u.).
On to “TAATAATTATTATTTGTGCTCTGAAAATTCCACTAAAATTCGGAGTCACCTAGTGCAG”, for which the binding signal is 10900 fluorescence intensity (a.u.).
Consider “CCCATGCAAAATCTAAACAAATTTAGCGGCTGATTAGTTACGGAGTCACCTAGTGCAG”, for which the binding signal was 5100 fluorescence intensity (a.u.).
To “CTCCTAATTAACGCAATTGACACTGGGCCACAGATCAAAGCGGAGTCACCTAGTGCAG” belongs 32400 fluorescence intensity (a.u.); to “CTAGCTAATTAAGAGCTGTCCACACCATGCATCCGTCCGCCGGAGTCACCTAGTGCAG”, 11200 fluorescence intensity (a.u.); to “CTACAGTTTGTGATTTGTCTGATCATGACAAAGGTCTACACGGAGTCACCTAGTGCAG”, 8870 fluorescence intensity (a.u.).
Regarding “CACCAGTTAAACTGTTAAATGAGCCCATTGTGAAATCTGTCGGAGTCACCTAGTGCAG”, the binding signal is 8770 fluorescence intensity (a.u.).
To “GGAATAGATTAAATCATTATATGTCTATAATCTCAACAATCGGAGTCACCTAGTGCAG” belongs 24500 fluorescence intensity (a.u.); to “TCTTCAATTAATTAAACAAGTCGATCACACACGCATCACTCGGAGTCACCTAGTGCAG”, 27700 fluorescence intensity (a.u.); to “TCTTAACAAGGTGATAGTGATTTGCGCACAACTTGCTTGACGGAGTCACCTAGTGCAG”, 6410 fluorescence intensity (a.u.).
To “TAATTATTAATATTTAATTAATTATATGTACTAATGAGTTCGGAGTCACCTAGTGCAG” belongs 34200 fluorescence intensity (a.u.); to “GCTTGTCAATCATATCATCATCGTTCATATCATTATTCTACGGAGTCACCTAGTGCAG”, 17600 fluorescence intensity (a.u.).
Next, “ACATTGATAGAAACAGCACAGGAAGTTCTGAGTCAGGCCCCGGAGTCACCTAGTGCAG”: 26300 fluorescence intensity (a.u.); “ACCTGTAAATTCGAAATTGACATCGAAGCGCAAAGCATCCCGGAGTCACCTAGTGCAG”: 22300 fluorescence intensity (a.u.).
On to “GGGGTTTCAATTAGCTTGCATACATATATAAGGAATGAAACGGAGTCACCTAGTGCAG”, for which the binding signal was 5000 fluorescence intensity (a.u.).
Next, “TACTACTAATTTTCATTTGCCTGAAAATTATAATATCGCACGGAGTCACCTAGTGCAG”: 6620 fluorescence intensity (a.u.).
